In PubChem BioAssay AID624417 (National Center for Advancing Translational Sciences (NCATS), 2012):
Hit rate of the full screen: of about 410,000 compounds, about 6,400 (1.6%) were called active. The shares of active, inactive and inconclusive entries below differ from those in the screen. The call rests on the fitted dose curve; in most records, active means well fitted inhibition curve with a large enough effect; inconclusive means small, poorly fitted or top-dose-only effect; inactive means no such curve, though single readings can be large or run the other way. Potencies of inconclusive entries are left out as doubtful fits.

Molecular target: Glucagon-like peptide 1 receptor (Homo sapiens) (UniProt P43220)
Assay: qHTS of GLP-1 Receptor Inverse Agonists (Inhibition Mode); further: nearly all actives have a fitted effect of over 55% in size
Settings: HEK293 GLP-1R CRE-luciferase, luminescence, 24 h, GLP-1R form is constitutively active; activity change, negative = inhibition: at 38.3 µM (top of the series) unless noted
Method in brief: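 Assay principle: reduced luminescence from a cAMP-responsive reporter in HEK293 cells co-expressing a constitutively active GLP-1R. Conditions: 24 hr compound incubation, 37 deg C, 5% CO2.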
On the % scale 0 is the no-effect control and ±100 the full control effect; potency means the concentration at half of the fitted maximal effect; tags describe the fitted curve by direction and shape.

Sequence of UniProt P43220 (P43220 whole entry, looked up): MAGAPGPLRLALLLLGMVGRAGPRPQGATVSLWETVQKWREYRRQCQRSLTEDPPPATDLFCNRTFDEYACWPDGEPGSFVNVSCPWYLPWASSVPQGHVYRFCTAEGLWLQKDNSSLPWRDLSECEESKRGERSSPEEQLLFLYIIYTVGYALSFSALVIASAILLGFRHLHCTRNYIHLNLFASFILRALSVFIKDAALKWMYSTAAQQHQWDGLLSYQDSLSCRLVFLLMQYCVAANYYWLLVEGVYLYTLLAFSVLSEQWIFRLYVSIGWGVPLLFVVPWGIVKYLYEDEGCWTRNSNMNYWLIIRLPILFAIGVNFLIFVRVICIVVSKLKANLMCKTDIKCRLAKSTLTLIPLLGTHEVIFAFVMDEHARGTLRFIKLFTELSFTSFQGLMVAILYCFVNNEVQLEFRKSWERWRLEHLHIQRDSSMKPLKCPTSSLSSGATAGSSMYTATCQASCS

Structure (SMILES) | Potency | activity change, negative = inhibition
CCCOc1ccc(/C=N/Nc2cc(N3CCOCC3)ncn2)c(O)c1 | inconclusive [inhibitor, partial curve] | –
Cc1ccc(-n2nnnc2SCC(=O)Nc2ccccc2N2CCCCC2)cc1C | inconclusive [inhibitor, full curve] | –
COC(=O)c1cccc2c1-c1ccccc1/C2=N/O | inconclusive [inhibitor, partial curve, poor fit] | –
CCC(C)(C)n1nnnc1C(c1cc2cc(OC)c(OC)cc2[nH]c1=O)N1CCc2ccccc21 (configuration not stated) | inconclusive [inhibitor, single point] | –
COc1ccccc1CN(C)C(=O)c1ccc(COc2ccccc2)cc1 | inconclusive [inhibitor, partial curve, poor fit] | –
CCC(Oc1ccccc1)C(=O)Nc1nnc(S(=O)(=O)N2CCCCC2)s1 (configuration not stated) | inconclusive [inhibitor, partial curve, poor fit] | –
CN(C)S(=O)(=O)c1ccc(NC(=O)COc2cccc3c2OC(C)(C)C3)cc1 | inconclusive [inhibitor, single point] | –
CCn1cc(C(=O)NCCN(CC(C)C)CC(C)C)c(=O)c2cc(S(=O)(=O)N3CCOCC3)ccc21 | active: 7.94 µM | –
CCOC(=O)c1c(S(=O)(=O)N2CCC(C(=O)NCc3cccc(OC)c3)CC2)c(C)n(C)c1C | inactive | –
COc1ccc(CNCCCNCc2ccc(OC)c(OC)c2)cc1OC | inconclusive [inhibitor, partial curve, poor fit] | –
Cc1ccc(CNC(=O)C2CN(S(C)(=O)=O)c3cc(Cl)ccc3O2)cc1 (configuration not stated) | inconclusive [inhibitor, single point] | –
CC1=C(C(=O)OC2CCCC2)C(c2c(F)cccc2Cl)CC(=O)N1 (configuration not stated) | inactive | –
Cc1ccc2c(Cl)cc(Cl)c(OCC(=O)NC3CCS(=O)(=O)C3)c2n1 (configuration not stated) | inconclusive [inhibitor, single point] | –
COc1ccc(C(=O)c2ccccc2Cl)cc1 | inconclusive [inhibitor, single point] | –
COc1cccc(N2CCN(C(=O)c3ccc(CS(=O)Cc4ccc(Cl)cc4)o3)CC2)c1 (configuration not stated) | inconclusive [inhibitor, single point] | –
O=c1cc(-c2ccccc2Cl)oc2c(NS(=O)(=O)c3cccs3)ccc(O)c12 | inconclusive [inhibitor, single point] | –
O=C(N/N=C/c1ccc2c(c1)OCO2)c1ccc2ccccc2n1 | inconclusive [inhibitor, partial curve, poor fit] | –
Cc1ccc(-c2cn3nc(N4CCCC(C(=O)NCc5ccccc5F)C4)sc3n2)cc1 (configuration not stated) | inactive | –
CN(C)c1ccc(NC(=O)Nc2ccc3c(c2)c(=O)n(C)n3Cc2ccccc2)cc1 | inconclusive [inhibitor, single point] | –
CCC(=O)N1CCN(c2ccc(NC(=O)c3ccc(C#N)cc3F)cc2Cl)CC1 | inactive | –
ON=C(CCc1ccccc1)c1ccccc1 | inconclusive [inhibitor, single point] | –

Structure (SMILES) | Potency | activity change, negative = inhibition
CC[n+]1c(/C=C/N(C)c2ccccc2)n(-c2ccccc2)c2ccc(-c3nc4ccccc4s3)cc21 | inconclusive [inhibitor, partial curve, poor fit] | –
Cc1ccc2c(c1)C1(C)C(C(C)(C)N2C=O)C1(Cl)Cl (configuration not stated) | inconclusive [inhibitor, single point] | –
COc1ccc2oc(C(=O)c3ccccc3)c(N)c2c1 | inconclusive [inhibitor, single point] | –
COc1cccc(C(=O)NC2CCCc3ccccc32)c1OC (configuration not stated) | inconclusive [inhibitor, single point] | –
Cc1nc(NC(=O)c2cc3ccccc3o2)sc1C | inconclusive [inhibitor, single point] | –
O=C1C=CC(=O)N1c1ccccc1N1C(=O)C=CC1=O | inconclusive [inhibitor, single point] | –
O=C1CCCN1CCCNC(=S)Nc1ccccc1 | inactive | –
Cc1ccc(NC(=S)NC2CCN(Cc3ccccc3)CC2)cc1 | inconclusive [inhibitor, single point] | –
O=C(CCS(=O)(=O)Cc1ccccc1)Nc1nnc(C(F)(F)F)s1 | inconclusive [inhibitor, partial curve, poor fit] | –
C=CCS(=O)(=O)c1nc2ccccc2s1 | inconclusive [inhibitor, single point] | –
CC(C)(C)NC(=O)CN(C(=O)CCC(=O)Nc1nccs1)c1ccccc1F | inactive | –
O=C(NCCc1ccccc1Cl)C1CCC(=O)N(C2CCCCCC2)C1 (configuration not stated) | inconclusive [inhibitor, single point] | –
Cc1cc(C)c(OCC(=O)N(Cc2ccc(N(C)C)cc2)Cc2ccco2)c(C)c1 | inconclusive [inhibitor, partial curve, poor fit] | –
COc1ccc(/C=C/C(=O)NC(=S)N2CCN(C)CC2)cc1 | – | inactive: 24.1% [at 7.66 µM]
CN1CCN(S(=O)(=O)c2cccc(C(=O)Oc3cccc(Br)c3)c2)CC1 | inconclusive [inhibitor, partial curve, poor fit] | –
Cc1ccccc1Cn1c(CN2CCC(C(=O)NCc3ccc(Cl)cc3)CC2)cc2ccccc21 | inconclusive [inhibitor, partial curve, poor fit] | –
CCN(CC)CCCN(Cc1cc2cc(OC)ccc2[nH]c1=O)C(=O)Nc1ccccc1 | inconclusive [inhibitor, partial curve, poor fit] | –
Cc1cc(OCC(=O)Nc2c(C(C)C)cccc2C(C)C)no1 | inconclusive [inhibitor, single point] | –
CCCCN(C)C(=O)c1ccc2c(=O)n3nc(Nc4cc(C)ccc4C)sc3nc2c1 | inactive | –
CC(C)(C)c1ccc(CN2N=Nc3ccccc3S2(=O)=O)cc1 | inconclusive [inhibitor, partial curve, poor fit] | –
CC1CCCCC1NC(=O)c1ccc2c(c1)[nH]c(=O)n2C1CCCC1 (configuration not stated) | inconclusive [inhibitor, partial curve, poor fit] | –

Structure (SMILES) | Potency | activity change, negative = inhibition
CC1CC(C)CN(CC(=O)N2CCCc3c2c(=O)oc2ccc(OCc4ccccc4)cc32)C1 (configuration not stated) | inconclusive [inhibitor, full curve, poor fit] | –
CCN1CCc2c(sc(NC(=O)c3ccc(S(=O)(=O)N4CCCC(C)C4)cc3)c2C(=O)OC)C1 (configuration not stated) | inconclusive [inhibitor, single point] | –
COc1ccc(C(=O)c2cc(C(C)=O)c(Nc3ccccc3)s2)cc1 | inconclusive [inhibitor, single point] | –
Cn1c(=O)c2cc(NC(=S)NC3CCCCC3)ccc2n1-c1ccccc1 | inconclusive [inhibitor, partial curve, poor fit] | –
Cc1ccc(NC(=O)CCc2c(C)nn(-c3ccc(N4CCCCC4)nn3)c2C)cc1 | inconclusive [inhibitor, single point] | –
CCOC(=O)Cc1ccc(Nc2nc3cc(-c4sccc4C)sc3c(=O)n2C)cc1 | inconclusive [inhibitor, full curve, poor fit] | –
O=C(Nc1ccccc1C(F)(F)F)c1ccc(F)c(S(=O)(=O)N2CCc3ccccc3C2)c1 | inconclusive [inhibitor, single point] | –
NC(Cc1ccc(C(F)(F)F)cc1)c1csc(NC(=O)Nc2ccccc2Cc2ccccc2)n1 (configuration not stated) | inconclusive [inhibitor, single point] | –
CCCN(CC(=O)Nc1ccccc1C)C(=O)c1ccc(N2CCCCC2)c([N+](=O)[O-])c1 | inconclusive [inhibitor, partial curve, poor fit] | –
Cc1ccc2nc(-c3ccc(NS(C)(=O)=O)cc3)cc(-c3ccccc3)c2c1 | inactive | –
N/C(Cc1cccc2ccccc12)=N\OC(=O)Cc1cccs1 | inconclusive [inhibitor, single point] | –
CCN(CC)CCNCc1cc(Cl)c(OCC(=O)Nc2ccccc2)c(OC)c1 | inconclusive [inhibitor, partial curve, poor fit] | –
COC(=O)C1=CN(c2ccc(F)cc2)C(N)=C(C#N)C1c1ccc(-c2ccccc2)cc1 (configuration not stated) | inconclusive [inhibitor, partial curve, poor fit] | –
COc1ccc(N2CCN(C(=O)CSc3ncccc3-c3nc4ccccc4[nH]3)CC2)cc1 | inactive | –
Cc1c(CCC(=O)N2CCC(C(=O)O)(c3ccccc3)CC2)c(=O)oc2cc3oc4c(c3cc12)CCCC4 | inactive | –
Cc1nn(-c2ccccc2)c(Cl)c1/C=C/C(=O)c1ccc(O)cc1 | inconclusive [inhibitor, single point] | –
COc1cccc(N2C(=O)CN(Cc3ccccc3)C2=S)c1 | inconclusive [inhibitor, partial curve, poor fit] | –
CNCCOc1ccccc1-c1ccccc1 | inconclusive [inhibitor, partial curve, poor fit] | –
Cc1ccc(-c2noc(CNC(=O)c3ccc(C)c(Cl)c3)n2)cc1 | inconclusive [inhibitor, single point] | –
Cc1cccc(C(=O)N(CC(=O)Nc2sc(C)c(C)c2C(N)=O)C2CCCC2)c1 | inconclusive [inhibitor, partial curve, poor fit] | –
